Measured values taken from the BET-seq Pho4 binding data (Le et al. 2018).
Some of the results follow. The energies were worked out here from pooled read counts, against the library average; single values are noisy.

Target: T1, Pho4 (S. cerevisiae) (UniProt P07270)
T1 sequence: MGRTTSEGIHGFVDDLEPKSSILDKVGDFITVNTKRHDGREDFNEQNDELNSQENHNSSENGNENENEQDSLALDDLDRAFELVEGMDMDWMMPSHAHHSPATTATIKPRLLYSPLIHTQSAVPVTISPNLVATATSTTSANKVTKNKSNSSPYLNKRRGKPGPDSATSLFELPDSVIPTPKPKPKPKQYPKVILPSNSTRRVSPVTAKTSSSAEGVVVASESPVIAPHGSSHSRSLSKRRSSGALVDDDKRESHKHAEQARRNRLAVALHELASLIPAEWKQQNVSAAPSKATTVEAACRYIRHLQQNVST
Assay: relative binding free energy (BET-seq); higher = weaker binding
Conditions: reference: library average

Relative binding free energy, -0.13 kcal/mol:
AGAGTCACGTGGTCTG
CTTGGCACGTGGAGTG
AGTCGCACGTGGGTAG
TTAAGCACGTGGTTTT
ATGCGCACGTGGTATT

Relative binding free energy, 0.28 kcal/mol:
TATGTCACGTGCGATA
CGGATCACGTGGAAGT
GGTGACACGTGAGTGT
TGAGACACGTGTGATT
TAGTTCACGTGTAGGC

Relative binding free energy, 0 kcal/mol:
CTGTGCACGTGCGGGC
ATGATCACGTGGGGAT

Relative binding free energy, 0.32 kcal/mol:
AGGATCACGTGGAATA
TTGATCACGTGAGTTA
TGGCTCACGTGTGTAT
TTTTTCACGTGTCTTG
AAGTTCACGTGGTCAT

Relative binding free energy, 0.33 kcal/mol:
CTTTTCACGTGTAAAG

Relative binding free energy, -0.2 kcal/mol:
AAGGGCACGTGCTAGG
TTAGGCACGTGATTGC
CGGGGCACGTGCGGTG
ACGGGCACGTGGGCGT

Relative binding free energy, 0.36 kcal/mol:
AGGATCACGTGAATTT
AAGAACACGTGATTTT

Relative binding free energy, 0.21 kcal/mol:
ATCATCACGTGTGATG
GTCGTCACGTGTTGCA
GGTGTCACGTGTATTT
AGGCTCACGTGTGGAA

Relative binding free energy, 0.19 kcal/mol:
AGTTGCACGTGCAAGA
TTTCGCACGTGAGTGA
AGTGGCACGTGAAGAA
AGTATCACGTGGCGTG
AATTTCACGTGGGCGG
AGGATCACGTGCTGAG

Relative binding free energy, 0.24 kcal/mol:
AAGTTCACGTGCGGAG
TGGTTCACGTGCCGGT

Relative binding free energy, -0.22 kcal/mol:
TACGGCACGTGGTTGA

Relative binding free energy, 0.25 kcal/mol:
GGTTTCACGTGGGGGT
GGGTACACGTGAGTTC

Relative binding free energy, 0.26 kcal/mol:
GGTATCACGTGAGTAG
GGTTGCACGTGACGTC
TGAGTCACGTGTTTTT

Relative binding free energy, 0.09 kcal/mol:
TTGCTCACGTGGTCGG
TAGATCACGTGCGTTT
GGTTACACGTGATTAG
TGAGTCACGTGTTAGC
TTGATCACGTGTTAGC
TGTGGCACGTGAGAGA

Relative binding free energy, -0.11 kcal/mol:
TTCTGCACGTGTTATA

Relative binding free energy, -0.15 kcal/mol:
ACGGGCACGTGGGTGA
CTGGGCACGTGGGCTT
AGGTCCACGTGGGCGA
AGTGGCACGTGCTGGA
GAGAGCACGTGGTGCG

Relative binding free energy, -0.06 kcal/mol:
TAGCCCACGTGTTTGG
TCGGTCACGTGGGGTT

Relative binding free energy, -0.19 kcal/mol:
TGCGACACGTGGCGTG
CAAGGCACGTGGTAGG

Relative binding free energy, 0.3 kcal/mol:
TGGTTCACGTGATATT

Relative binding free energy, -0.07 kcal/mol:
TGGGTCACGTGCAGGA
AAGATCACGTGGGCGG
GTTAGCACGTGTTAGC
GATAGCACGTGGTTGC

Relative binding free energy, -0.26 kcal/mol:
GTTGGCACGTGGCCAG

Relative binding free energy, -0.02 kcal/mol:
ATTTACACGTGGTGCT
TTAAACACGTGGGGGA
TTGAGCACGTGACTGT
TTTGACACGTGGCATT
TGGGTCACGTGGGAGA
TGTGGCACGTGTTGTG
TTGTACACGTGGTTTC

Relative binding free energy, 0.06 kcal/mol:
AGGTACACGTGGTTAC
TTGGGCACGTGATTTG
TTGATCACGTGCTGGT

Relative binding free energy, -0.05 kcal/mol:
TGTGACACGTGCTCGG
TGTACCACGTGTTTAT
TCCGGCACGTGGGTAT
CGGGACACGTGCGGTA
GGTAGCACGTGGCGTA
CTGGGCACGTGGATGA
ATGCGCACGTGTGGTC

Relative binding free energy, 0.4 kcal/mol:
GTGTTCACGTGAATGT
TGAAGCACGTGAAGTT

Relative binding free energy, -0.17 kcal/mol:
AGGCGCACGTGCTGGG
AAGGGCACGTGTGAAT
GCGGGCACGTGGAGAG

Relative binding free energy, 0.03 kcal/mol:
GTATACACGTGTGAGG
GGTGGCACGTGATCGG
TTAAGCACGTGAGTAT
GTGATCACGTGGGTGA
GGTGGCACGTGTGGTA

Relative binding free energy, -0.16 kcal/mol:
AAAGACACGTGGGTCG
GTTGGCACGTGGATGA
TTTCCCACGTGGGGGG

Relative binding free energy, 0.15 kcal/mol:
GGTTACACGTGTTTAC
ATGTACACGTGTGGGC
TTGTTCACGTGACTTA

Relative binding free energy, -0.21 kcal/mol:
TTGGGCACGTGGCCAG
TCTAACACGTGGGGGT
AGGGCCACGTGGTAGT
GGTAGCACGTGGCTAT
GGATGCACGTGGGTAG

Relative binding free energy, -0.04 kcal/mol:
ACGGGCACGTGATTGT
CTGGGCACGTGTTTGC
TAGAACACGTGGTGTG
GTAACCACGTGTGGGG
GGTGGCACGTGCCGGG
AGGGCCACGTGTCGAG
TAGGACACGTGCTTGG

Relative binding free energy, -0.24 kcal/mol:
CTAGGCACGTGGTATG

Relative binding free energy, -0.23 kcal/mol:
TAGAGCACGTGGGTTA

Relative binding free energy, 0.23 kcal/mol:
TGGAGCACGTGAATGC

Relative binding free energy, 0.01 kcal/mol:
GAGTGCACGTGTCATG
TCTAGCACGTGTTTAT
TTATCCACGTGGAGTT
TTGGTCACGTGGTGGA
TTAGTCACGTGTCTAT

Relative binding free energy, -0.03 kcal/mol:
GGAGACACGTGGGGGC
AAGTGCACGTGGCGTG

Relative binding free energy, 0.2 kcal/mol:
TTGCACACGTGATGGG
CGGAGCACGTGAGAGT
AGCGTCACGTGAGTAG
TTGTACACGTGTGAGA

Relative binding free energy, 0.07 kcal/mol:
ATAATCACGTGCTATT
TGGGGCACGTGAACAT
TTGTGCACGTGTAATA
AATGTCACGTGTAATG
ATAATCACGTGGTAGG

Relative binding free energy, 0.34 kcal/mol:
CATTTCACGTGAATTT
GTTAGCACGTGAAATT
TTTTACACGTGAGTGT
CAGATCACGTGTGGTC

Relative binding free energy, 0.27 kcal/mol:
ATTTTCACGTGGATGT
GGGTGCACGTGAAGGA
GTAGTCACGTGATGAG
GGTATCACGTGATGTG
AGGTTCACGTGTCAGA

Relative binding free energy, 0.35 kcal/mol:
GTTGTCACGTGTAACT
TGTGTCACGTGAGATG

Relative binding free energy, 0.05 kcal/mol:
TGATGCACGTGTCGGG
TGTCTCACGTGGCTTG
TCGGTCACGTGGTCTA
TCAATCACGTGTTTGG
ATTTGCACGTGGTGAA
TATCACACGTGGTGGT
GTTGGCACGTGGATAA

Relative binding free energy, -0.18 kcal/mol:
CGTTCCACGTGGTGTG
CTTAGCACGTGCGGGG
TAGTGCACGTGGGACT

Relative binding free energy, 0.16 kcal/mol:
TGTTTCACGTGGCAGG

Relative binding free energy, 0.18 kcal/mol:
CTTGTCACGTGTGATG
TTTTACACGTGTGGTT
TGTTCCACGTGTTTAT

Relative binding free energy, -0.14 kcal/mol:
TTTAACACGTGGGCGA

Relative binding free energy, -0.01 kcal/mol:
GAGGGCACGTGTATGT
TCGGACACGTGGGAGG
ATTGGCACGTGACGGC
TGGTACACGTGGGAGT

Relative binding free energy, 0.17 kcal/mol:
AGGCGCACGTGATATT
AATTTCACGTGGGGCA
GGGATCACGTGGAAGT

Relative binding free energy, 0.37 kcal/mol:
GGTGTCACGTGAGGTT

Relative binding free energy, 0.04 kcal/mol:
CTGGTCACGTGGTCTT
CGTGTCACGTGGCGGG

Relative binding free energy, -0.36 kcal/mol:
ATAGCCACGTGGGGGT

Relative binding free energy, 0.52 kcal/mol:
TGGAACACGTGAACGG
GTGTTCACGTGAACAT

Relative binding free energy, 0.29 kcal/mol:
GTATACACGTGACTGT
TTTCTCACGTGTTTAC
TTATTCACGTGTGTCC
TTGATCACGTGAGCTT

Relative binding free energy, 0.22 kcal/mol:
AGAGTCACGTGTTTTT
TGAGTCACGTGCGTTC
GTCTGCACGTGATTGA
TGGATCACGTGGTGAC
TTGTACACGTGAATGA

Relative binding free energy, 0.12 kcal/mol:
AAGGGCACGTGAGGAC
AAGATCACGTGAGGGG
TGCGACACGTGGAAGT
ATTGTCACGTGTAAGA
GTGGGCACGTGTGGCC

Relative binding free energy, -0.09 kcal/mol:
AGATGCACGTGGTAAG
CGTTGCACGTGGTGTG
GTCAGCACGTGTTGTG

Relative binding free energy, 0.14 kcal/mol:
GTTATCACGTGGTCTG
TAGTTCACGTGCCTGG
ATGGTCACGTGGCTCA
TATCTCACGTGGGTCG
GGTATCACGTGCGTGA
GGTTACACGTGGGGCG
GTGCTCACGTGGAGTT

Relative binding free energy, -0.25 kcal/mol:
TGTAGCACGTGGCTGG
GATAGCACGTGGCTGG

Relative binding free energy, 0.13 kcal/mol:
TTGATCACGTGGTATG
TACTGCACGTGAGTGG
GGGGTCACGTGCGACG
GAATGCACGTGTGGTC
TATGACACGTGTATAT
CGGGGCACGTGAGACG

Relative binding free energy, -0.27 kcal/mol:
CTATGCACGTGGGGAT

Relative binding free energy, 0.1 kcal/mol:
TTCGTCACGTGTTTAA
AAGATCACGTGGTTAT
TAGTGCACGTGTCGGA
AATGTCACGTGTTATG
GTAACCACGTGTGGGT

Relative binding free energy, 0.02 kcal/mol:
ACAGTCACGTGGTGGG
GTGATCACGTGGGGTA
GTAGCCACGTGTGGTG
ATTTCCACGTGTTAGT
TGTAACACGTGGGATG
GGTTGCACGTGTAAGT
GGCTGCACGTGTTTGT
AGGTACACGTGGACGT

Relative binding free energy, -0.08 kcal/mol:
AGGCACACGTGGTTAG
GTGTACACGTGGCAGG

Relative binding free energy, -0.12 kcal/mol:
GGGCGCACGTGGGGAT
TTGAGCACGTGTCTAG
CGGTGCACGTGGGCAA

Relative binding free energy, 0.11 kcal/mol:
TGGATCACGTGGTTTA
TTCGACACGTGGGATT
TTTATCACGTGGTTTG
TTGGACACGTGTTATT
TGGATCACGTGGGACG

Relative binding free energy, 0.08 kcal/mol:
CGATGCACGTGTATGG
TGCTGCACGTGTCGTT
GGGATCACGTGGTATT
GGTGGCACGTGTATTA
TTTGTCACGTGTCAAT
TATTCCACGTGGCTGG
TGGAGCACGTGATGGC
